Patent publication US20040265931

Tested on: ubiquitinated Flag-p53

**Q.** With Flag-HAUSP (no sequence given) as the substance, how does the “in vitro deubiquitination of purified ubiquitinated p53” value read?
**A.** p53 was efficiently deubiquitinated upon incubation with purified recombinant HAUSP
